# The supplement of paper PMC11880418
# Where a name gives a salt, the structure may show the parent alone. Some of the results follow. The data scatter; read single values as rough.
# System: MKN45
# Assay: ALDHbr (CSC) cell proportion score relative to DMSO vehicle (ratio to DMSO); breast (SUM159) / gastric (MKN45) / pancreatic (PANC1) / colon cancer lines; ALDHbr cells have high ALDH activity and are rich in cancer stem cells (CSC); higher = more CSC (ALDHbr) cells remaining
# Settings: 10 µM; 72 h
# 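Further: High-content imaging of ALDEFLUOR-stained cells with Hoechst-labelled nuclei in 384-well plates, triplicate wells, scored as Z-score against 0.1% DMSO vehicle, negative meaning fewer ALDHbr cells.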
row,SMILES,ALDHbr
1,CC(=O)O[C@]1(C(C)=O)CC[C@H]2[C@@H]3C=C(Cl)C4=CC(=O)CC[C@]4(C)[C@H]3CC[C@@]21C [Chlormadinone acetate],0.799
2,O=c1oc2ccccc2c(O)c1Cc1c(O)c2ccccc2oc1=O [Dicumarol],0.971
3,CC(C)(C)NCC(O)COc1cccc2c1CCC(=O)N2 (centres undefined) [Carteolol hydrochloride],1.14
4,CN(CCCCCCCCCCN(C)C(=O)Oc1cccc([N+](C)(C)C)c1)C(=O)Oc1cccc([N+](C)(C)C)c1 [Demecarium bromide],1.04
5,Clc1ccc(CSC(Cn2ccnc2)c2ccc(Cl)cc2Cl)cc1 (centres undefined) [Sulconazole nitrate],0.918
6,COc1ccc(C(=O)NCc2ccc(OCCN(C)C)cc2)cc1OC [Itopride],0.94
7,CN(C)C(=N)NC(=N)N [Metformin hydrochloride],1.01
8,CN(C)CCN(Cc1cccs1)c1ccccn1 [Methapyrilene hydrochloride],1.1
9,Cn1c([N+](=O)[O-])cnc1COC(N)=O [Ronidazole],1.13
10,O=C(O)c1ccccc1Nc1cccc(C(F)(F)F)c1 [Flufenamic acid],1.21
11,Clc1ccc(C(Cn2ccnc2)OCc2csc3c(Cl)cccc23)c(Cl)c1 (centres undefined) [Sertaconazole nitrate],1.28
12,C=CC1=C(C(=O)O)N2C(=O)[C@@H](NC(=O)/C(=N\O)c3csc(N)n3)[C@H]2SC1 [Cefdinir],1.04
13,Cc1c(C)c2c(c(C)c1O)CCC(C)(COc1ccc(CC3SC(=O)NC3=O)cc1)O2 (centres undefined) [Troglitazone],0.765
14,CNCC(O)c1ccc(OC(=O)C(C)(C)C)c(OC(=O)C(C)(C)C)c1 (centres undefined) [Dipivefrin hydrochloride],1.07
15,C[C@]12C=CC(=O)C=C1CC[C@H]1[C@@H]3C[C@@H](O)[C@](O)(C(=O)CO)[C@@]3(C)C[C@H](O)[C@@]12F [Triamcinolone],0.991
16,CCN(CC)CCOC(=O)C(c1ccccc1)C1CCCCC1 (centres undefined) [Drofenine hydrochloride],0.897
17,O=C1CC2(CCCC2)CC(=O)N1CCCCN1CCN(c2ncccn2)CC1 [Buspirone hydrochloride],0.545
18,CC(C)(C)NCC(O)c1ccc(O)c(CO)c1 (centres undefined) [Salbutamol],0.949
19,NC1CCN(c2nc3c(cc2F)c(=O)c(C(=O)O)cn3-c2ccc(F)cc2F)C1 (centres undefined) [Tosufloxacin hydrochloride],1.52
20,Cc1ccc(C)c(OCCCC(C)(C)C(=O)O)c1 [Gemfibrozil],1.03

row,SMILES,ALDHbr
1,N#Cc1ccc(C(c2ccc(C#N)cc2)n2cncn2)cc1 [Letrozole],0.992
2,CN/C(=N\CCSCc1nc[nH]c1C)NC#N [Cimetidine],0.867
3,C[C@@H](O)[C@H]1C(=O)N2C(C(=O)O)=C(SCCNC=N)C[C@H]12 [Imipenem],1.02
4,COC(c1ccccc1)(c1ccccc1)[C@H](Oc1nc(C)cc(C)n1)C(=O)O [Ambrisentan],0.888
5,CN(C)CCOc1ccc(/C(=C(/CCCl)c2ccccc2)c2ccccc2)cc1 [Toremifene],0.654
6,CN[C@@H]1[C@H](O[C@H]2[C@H](O[C@H]3[C@H](O)[C@@H](O)[C@H](NC(=N)N)[C@@H](O)[C@@H]3NC(=N)N)O[C@@H](C)[C@]2(O)CO)O[C@@H](CO)[C@H](O)[C@H]1O [Dihydrostreptomycin sulfate],1.22
7,O=C(O)CCNC(=O)c1ccc(/N=N/c2ccc(O)c(C(=O)O)c2)cc1 [Balsalazide Sodium],0.966
8,Cc1cccc(Nc2ccncc2S(=O)(=O)NC(=O)NC(C)C)c1 [Torsemide],1.08
9,CN1[C@@H]2CC[C@H]1C[C@@H](OC(=O)c1c[nH]c3ccccc13)C2 [Tropisetron hydrochloride],1.23
10,Nc1nc2[nH]cc(CCc3ccc(C(=O)N[C@@H](CCC(=O)O)C(=O)O)cc3)c2c(=O)[nH]1 [Pemetrexed disodium],0.245
11,C[C@H](Cc1cc2c(c(C(N)=O)c1)N(CCCO)CC2)NCCOc1ccccc1OCC(F)(F)F [Silodosin],0.958
12,NC(N)=Nc1nc(CSCC/C(N)=N/S(N)(=O)=O)cs1 [Famotidine],0.978
13,CCNC(=O)CCC/C=C\C[C@@H]1[C@@H](/C=C/[C@@H](O)CCc2ccccc2)[C@H](O)C[C@@H]1O [Bimatoprost],0.945
14,O=C(NCCNCC(O)COc1ccc(O)cc1)N1CCOCC1 (centres undefined) [Xamoterol hemifumarate],0.944
15,Cc1ccc2c(c1)c1c3n2CCNC3CCC1 (centres undefined) [Pirlindole mesylate],1.23
16,CC(C(O)c1ccc(O)cc1)N1CCC(Cc2ccccc2)CC1 (centres undefined) [Ifenprodil tartrate],1.18
17,Cc1cc(C)nc(NS(=O)(=O)c2ccc(N)cc2)n1 [Sulfamethazine sodium salt],0.994
18,COc1cccc(N(C)C(=S)Oc2ccc3c(c2)CCCC3)n1 [Liranaftate],0.634
19,COc1cc([C@@H]2c3cc4c(cc3[C@@H](O[C@@H]3O[C@@H]5CO[C@@H](C)O[C@H]5[C@H](O)[C@H]3O)[C@H]3COC(=O)[C@H]23)OCO4)cc(OC)c1O [Etoposide],0.298
